The supplement of paper PMC8728848
This is one part of the list.

Tests used:
Assay in all cases: glycan array binding signal (z-score within array); higher = stronger binding
Settings in all cases: glycan notation: IUPAC condensed, linker removed
Fuc(a1-2)Gal = target: Fuc(a1-2)Gal
How it was run: (§1)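 Arrays were curated from the Consortium for Functional Glycomics database, 3228 in total, and kept only where the protein sequence was available. Binding is expressed as a within-array Z-score. This score was averaged across arrays of the same protein sequence at different concentrations or buffers and across linkers, and negative values can be read as non-binding.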

Fuc(a1-2)Gal(b1-3)GalNAc = target: Fuc(a1-2)Gal(b1-3)GalNAc
How it was run: as §1

[1] = target: Fuc(a1-2)Gal(b1-3)GalNAc(a1-3)[Fuc(a1-2)]Gal(b1-4)Glc
How it was run: as §1

[2] = target: Fuc(a1-2)Gal(b1-3)GalNAc(a1-3)[Fuc(a1-2)]Gal(b1-4)GlcNAc
How it was run: as §1

[3] = target: Fuc(a1-2)Gal(b1-3)GalNAc(b1-3)Gal
How it was run: as §1

[4] = target: Fuc(a1-2)Gal(b1-3)GalNAc(b1-3)Gal(a1-4)Gal(b1-4)Glc
How it was run: as §1

[5] = target: Fuc(a1-2)Gal(b1-3)GalNAc(b1-4)[Neu5Ac(a2-3)]Gal(b1-4)Glc
How it was run: as §1

Fuc(a1-2)Gal(b1-3)GlcNAc = target: Fuc(a1-2)Gal(b1-3)GlcNAc
How it was run: as §1

[6] = target: Fuc(a1-2)Gal(b1-3)GlcNAc(b1-2)Man(a1-3)[Fuc(a1-2)Gal(b1-3)GlcNAc(b1-2)Man(a1-6)]Man(b1-4)GlcNAc(b1-4)GlcNAc
How it was run: as §1

[7] = target: Fuc(a1-2)Gal(b1-3)GlcNAc(b1-2)Man(a1-3)[Fuc(a1-2)Gal(b1-3)GlcNAc(b1-2)Man(a1-6)]Man(b1-4)GlcNAc(b1-4)[Fuc(a1-6)]GlcNAc
How it was run: as §1

[8] = target: Fuc(a1-2)Gal(b1-3)GlcNAc(b1-3)Gal(b1-4)Glc
How it was run: as §1

[9] = target: Fuc(a1-2)Gal(b1-3)GlcNAc(b1-3)GalNAc
How it was run: as §1

[10] = target: Fuc(a1-2)Gal(b1-3)GlcNAc(b1-3)[Fuc(a1-2)Gal(b1-3)GlcNAc(b1-6)]GalNAc
How it was run: as §1

[11] = target: Fuc(a1-2)Gal(b1-3)GlcNAc(b1-3)[Gal(b1-4)GlcNAc(b1-6)]Gal(b1-4)Glc
How it was run: as §1

[12] = target: Fuc(a1-2)Gal(b1-3)GlcNAc(b1-3)[Neu5Ac(a2-6)Gal(b1-4)GlcNAc(b1-6)]Gal(b1-4)Glc
How it was run: as §1

[13] = target: Fuc(a1-2)Gal(b1-3)GlcNAc6S
How it was run: as §1

[14] = target: Fuc(a1-2)Gal(b1-3)[Fuc(a1-4)]GlcNAc
How it was run: as §1

[15] = target: Fuc(a1-2)Gal(b1-3)[Fuc(a1-4)]GlcNAc(b1-2)Man(a1-3)[Fuc(a1-2)Gal(b1-3)[Fuc(a1-4)]GlcNAc(b1-2)Man(a1-3)]Man(b1-4)GlcNAc(b1-4)GlcNAc
How it was run: as §1

[16] = target: Fuc(a1-2)Gal(b1-3)[Fuc(a1-4)]GlcNAc(b1-2)Man(a1-3)[Fuc(a1-2)Gal(b1-3)[Fuc(a1-4)]GlcNAc(b1-2)Man(a1-6)]Man(b1-4)GlcNAc(b1-4)[Fuc(a1-6)]GlcNAc(b1-4)[Fuc(a1-6)]GlcNAc
How it was run: as §1

[17] = target: Fuc(a1-2)Gal(b1-3)[Fuc(a1-4)]GlcNAc(b1-3)[Fuc(a1-3)[Gal(b1-4)]GlcNAc(b1-6)]Gal(b1-4)Glc
How it was run: as §1

[18] = target: Fuc(a1-2)Gal(b1-3)[Fuc(a1-4)]GlcNAc(b1-3)[Gal(b1-4)GlcNAc(b1-6)]Gal(b1-4)Glc
How it was run: as §1

Fuc(a1-2)Gal(b1-4)Glc = target: Fuc(a1-2)Gal(b1-4)Glc
How it was run: as §1

Fuc(a1-2)Gal(b1-4)Glc6S = target: Fuc(a1-2)Gal(b1-4)Glc6S
How it was run: as §1

Fuc(a1-2)Gal(b1-4)GlcNAc = target: Fuc(a1-2)Gal(b1-4)GlcNAc
How it was run: as §1

[19] = target: Fuc(a1-2)Gal(b1-4)GlcNAc(b1-2)Man
How it was run: as §1

[20] = target: Fuc(a1-2)Gal(b1-4)GlcNAc(b1-2)Man(a1-3)[Fuc(a1-2)Gal(b1-4)GlcNAc(b1-2)Man(a1-6)]Man(b1-4)GlcNAc(b1-4)GlcNAc
How it was run: as §1

[21] = target: Fuc(a1-2)Gal(b1-4)GlcNAc(b1-2)Man(a1-3)[Fuc(a1-2)Gal(b1-4)GlcNAc(b1-2)Man(a1-6)]Man(b1-4)GlcNAc(b1-4)[Fuc(a1-6)]GlcNAc
How it was run: as §1

[22] = target: Fuc(a1-2)Gal(b1-4)GlcNAc(b1-2)[Fuc(a1-2)Gal(b1-4)GlcNAc(b1-4)]Man(a1-3)[Fuc(a1-2)Gal(b1-4)GlcNAc(b1-2)Man(a1-6)]Man(b1-4)GlcNAc(b1-4)GlcNAc
How it was run: as §1

[23] = target: Fuc(a1-2)Gal(b1-4)GlcNAc(b1-3)Gal(b1-4)GlcNAc
How it was run: as §1

[24] = target: Fuc(a1-2)Gal(b1-4)GlcNAc(b1-3)Gal(b1-4)GlcNAc(b1-2)Man(a1-3)[Fuc(a1-2)Gal(b1-4)GlcNAc(b1-3)Gal(b1-4)GlcNAc(b1-2)Man(a1-6)]Man(b1-4)GlcNAc(b1-4)GlcNAc
How it was run: as §1

B1: SP16663B-bot-321-25-321 (Bacteroides ovatus) (protein)
chain: DDDDEVTMNSKFYLSTKVFPVDSYEASLSVILKDNSVVVNELQPNYRFVACATERLSKDVKITADSDDNLVSAYNKANDTEYNILPAENYSFTNKTVTIENGESVSGDSIKIELLNVGSLTTEGGYLLPVTISSIEGNNLDALSSNRGVVYLKIQNIHVNVESGQPAEGTLIADRSGWTVKVAPTTRGDAKNLIDGTNSDVARDGGAEYWLTVDIGKVQTLTGIRNKCYASSYSPTAVEVFTSSDGAKWKSIGAVTISKSGTQYIKFSKAVETRYLKYYVKQGPNTVSLTEFDLYAK
**Q.** What does the source list for B1?
**A.** glycan array binding signal (z-score) (Fuc(a1-2)Gal): -0.178; glycan array binding signal (z-score) (Fuc(a1-2)Gal(b1-3)GalNAc): -0.504; glycan array binding signal (z-score) [1]: -0.032; glycan array binding signal (z-score) [2]: -0.326; glycan array binding signal (z-score) [3]: 0.012; glycan array binding signal (z-score) [4]: -0.417; glycan array binding signal (z-score) [5]: -0.508; glycan array binding signal (z-score) (Fuc(a1-2)Gal(b1-3)GlcNAc): -0.292; glycan array binding signal (z-score) [6]: 0.67; glycan array binding signal (z-score) [7]: -0.336; glycan array binding signal (z-score) [8]: -0.29; glycan array binding signal (z-score) [9]: -0.546; glycan array binding signal (z-score) [10]: 0.048; glycan array binding signal (z-score) [11]: 0.3; glycan array binding signal (z-score) [12]: -0.267; glycan array binding signal (z-score) [13]: 0.413; glycan array binding signal (z-score) [14]: -0.607; glycan array binding signal (z-score) [15]: 0.013; glycan array binding signal (z-score) [16]: 0.087; glycan array binding signal (z-score) [17]: -0.301; glycan array binding signal (z-score) [18]: 0.147; glycan array binding signal (z-score) (Fuc(a1-2)Gal(b1-4)Glc): -0.653; glycan array binding signal (z-score) (Fuc(a1-2)Gal(b1-4)Glc6S): 0.166; glycan array binding signal (z-score) (Fuc(a1-2)Gal(b1-4)GlcNAc): -0.156; glycan array binding signal (z-score) [19]: -0.223; glycan array binding signal (z-score) [20]: -0.251; glycan array binding signal (z-score) [21]: -0.311; glycan array binding signal (z-score) [22]: -0.623; glycan array binding signal (z-score) [23]: -0.487; glycan array binding signal (z-score) [24]: 0.005
